This is one part of the list.
System: S. aureus RN4220
Assay: growth inhibition call (relative growth <= 0.2)
Conditions: 50 µM

Growth inhibition call, inactive:
C[C@@H]1CCCCO[C@H](CN(C)Cc2ccc3c(c2)OCO3)[C@@H](C)CN([C@H](C)CO)C(=O)c2cc(NC(=O)NC3CCCCC3)ccc2O1, C[C@@H]1CN([C@H](C)CO)C(=O)c2cccc(NC(=O)Nc3cccc4ccccc34)c2O[C@@H]1CN(C)S(=O)(=O)c1ccc(F)cc1, C[C@@H]1CCCCO[C@H](CN(C)C(=O)NC2CCCCC2)[C@@H](C)CN([C@@H](C)CO)C(=O)c2cc(NS(=O)(=O)c3cccs3)ccc2O1, C[C@H]1CN([C@@H](C)CO)C(=O)c2cccc(NS(=O)(=O)c3ccc(F)cc3)c2O[C@H]1CN(C)Cc1ccc(Cl)c(Cl)c1, Nc1ccc(-n2cnnn2)cc1, COc1cccc(CN(C)C[C@H]2OCc3ccccc3-c3c(n(C)c4ccccc34)C(=O)N([C@@H](C)CO)C[C@@H]2C)c1, O=C(C[C@H]1C[C@H]2c3cc(NC(=O)Cc4ccncc4)ccc3O[C@H]2[C@H](CO)O1)NCCN1CCCCC1, COc1ccc(NC(=O)Nc2ccc3c(c2)C(=O)N([C@@H](C)CO)C[C@@H](C)[C@H](CN(C)Cc2ccccc2)OCCCC[C@H](C)O3)cc1, CCNc1ncnc2c1nnn2C, C[C@@H]1CCCCO[C@@H](CN(C)S(=O)(=O)c2cccs2)[C@@H](C)CN([C@H](C)CO)C(=O)c2cc(NC(=O)Nc3ccc(C(F)(F)F)cc3)ccc2O1, C[C@@H]1CCCCO[C@@H](CN(C)C(=O)Nc2ccc3c(c2)OCO3)[C@@H](C)CN([C@@H](C)CO)C(=O)c2cc(NC(=O)Cc3ccccc3)ccc2O1, C[C@@H]1CN([C@H](C)CO)C(=O)CCCn2cc(nn2)CO[C@H]1CN(C)C(=O)Nc1cccc(Oc2ccccn2)c1, C[C@H]1CN([C@@H](C)CO)C(=O)c2cccc(NS(=O)(=O)c3cccs3)c2O[C@H]1CN(C)S(=O)(=O)c1ccc(F)cc1, O=C(CN1CCOCC1)NCC[C@@H]1CC[C@H](NS(=O)(=O)c2ccc(Cl)cc2)[C@H](CO)O1, CN1C(=O)c2cc(NC(=O)C3CCOCC3)ccc2OC[C@H]2O[C@@H](CC(=O)NCCc3ccncc3)CC[C@H]21, COc1ccc(NC(=O)N2C[C@H](O)COC[C@H]3O[C@H](CC(=O)NC4Cc5ccccc5C4)CC[C@@H]32)cc1, CNC[C@H]1Oc2c(NS(=O)(=O)c3cn(C)cn3)cccc2C(=O)N([C@H](C)CO)C[C@@H]1C, Cc1ccc(S(=O)(=O)N(C)C[C@@H]2OCCCC[C@@H](C)Oc3ccc(NC(=O)Nc4cccc5ccccc45)cc3C(=O)N([C@@H](C)CO)C[C@@H]2C)cc1, O=C(C[C@H]1CC[C@H]2[C@@H](COC[C@H](O)CN2S(=O)(=O)c2ccccc2)O1)NCc1ccc2c(c1)OCO2, Cc1ccc(S(=O)(=O)N(C)C[C@H]2Oc3ncc(C#CC4(O)CCCC4)cc3C(=O)N([C@@H](C)CO)C[C@H]2C)cc1, C[C@H](CO)N1C[C@H](C)[C@@H](CN(C)S(=O)(=O)c2cccs2)Oc2ccc(NS(C)(=O)=O)cc2CC1=O, C[C@@H]1CCCCO[C@@H](CN(C)C(=O)CCC(F)(F)F)[C@@H](C)CN([C@@H](C)CO)C(=O)c2cc(NS(=O)(=O)c3ccc(F)cc3)ccc2O1, C=CCNC(=O)C(=O)NC[C@H]1OCCCN1S(=O)(=O)c1ccccc1, O=C(CCc1ccc(O)cc1)c1c(O)c([C@@H]2O[C@H](CO)[C@@H](O)[C@H](O)[C@H]2O)c(O)c([C@@H]2O[C@H](CO)[C@@H](O)[C@H](O)[C@H]2O)c1O

Reference: the antibiotic and cytotoxicity screens of Wong et al. (2023)
